Reference: the supplement of paper PMC8728848
This is one part of the list.

Tests used:
Assay in all cases: glycan array binding signal (z-score within array); higher = stronger binding
Details in all cases: glycan notation: IUPAC condensed, linker removed; mutation: E227A
[1] = target: Neu5Ac(a2-3)Gal(b1-3)GlcNAc(b1-6)GalNAc
Summary of the method: (§1)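 Negative Z-scores can be read as non-binding. The Z-score is calculated within each array and then averaged across arrays of one protein sequence at different concentrations or buffers and across linkers. Arrays, 3228 in all, were curated from the Consortium for Functional Glycomics database and kept only where the protein sequence was available.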

[2] = target: Neu5Ac(a2-3)Gal(b1-3)GlcNAc6S
Summary of the method: as §1

[3] = target: Neu5Ac(a2-3)Gal(b1-3)[Fuc(a1-4)]GlcNAc
Summary of the method: as §1

[4] = target: Neu5Ac(a2-3)Gal(b1-3)[Fuc(a1-4)]GlcNAc(b1-3)Gal(b1-3)[Fuc(a1-4)]GlcNAc
Summary of the method: as §1

[5] = target: Neu5Ac(a2-3)Gal(b1-3)[Fuc(a1-4)]GlcNAc(b1-3)Gal(b1-4)[Fuc(a1-3)]GlcNAc
Summary of the method: as §1

[6] = target: Neu5Ac(a2-3)Gal(b1-3)[GlcNAc(b1-6)]GalNAc
Summary of the method: as §1

[7] = target: Neu5Ac(a2-3)Gal(b1-3)[Neu5Ac(a2-6)]GalNAc
Summary of the method: as §1

[8] = target: Neu5Ac(a2-3)Gal(b1-3)[Neu5Ac(a2-6)]GlcNAc(b1-3)[Fuc(a1-3)[Gal(b1-4)]GlcNAc(b1-6)]Gal(b1-4)Glc
Summary of the method: as §1

[9] = target: Neu5Ac(a2-3)Gal(b1-3)]Neu5Ac(a2-3)Gal(b1-4)]GlcNAc
Summary of the method: as §1

Neu5Ac(a2-3)Gal(b1-4)Glc = target: Neu5Ac(a2-3)Gal(b1-4)Glc
Summary of the method: as §1

[10] = target: Neu5Ac(a2-3)Gal(b1-4)GlcNAc
Summary of the method: as §1

[11] = target: Neu5Ac(a2-3)Gal(b1-4)GlcNAc(b1-2)Man
Summary of the method: as §1

[12] = target: Neu5Ac(a2-3)Gal(b1-4)GlcNAc(b1-2)Man(a1-3)[GlcNAc(b1-4)][Neu5Ac(a2-3)Gal(b1-4)GlcNAc(b1-2)Man(a1-6)]Man(b1-4)GlcNAc(b1-4)GlcNAc
Summary of the method: as §1

[13] = target: Neu5Ac(a2-3)Gal(b1-4)GlcNAc(b1-2)Man(a1-3)[Neu5Ac(a2-3)Gal(b1-4)GlcNAc(b1-2)Man(a1-6)]Man(b1-4)GlcNAc(b1-4)GlcNAc
Summary of the method: as §1

[14] = target: Neu5Ac(a2-3)Gal(b1-4)GlcNAc(b1-2)Man(a1-3)[Neu5Ac(a2-3)Gal(b1-4)GlcNAc(b1-2)Man(a1-6)]Man(b1-4)GlcNAc(b1-4)[Fuc(a1-6)]GlcNAc
Summary of the method: as §1

[15] = target: Neu5Ac(a2-3)Gal(b1-4)GlcNAc(b1-2)Man(a1-3)[Neu5Ac(a2-6)Gal(b1-4)GlcNAc(b1-2)Man(a1-6)]Man(b1-4)GlcNAc(b1-4)GlcNAc
Summary of the method: as §1

[16] = target: Neu5Ac(a2-3)Gal(b1-4)GlcNAc(b1-2)[Neu5Ac(a2-3)Gal(b1-4)GlcNAc(b1-4)]Man(a1-3)[GlcNAc(b1-4)][Neu5Ac(a2-3)Gal(b1-4)GlcNAc(b1-2)[Neu5Ac(a2-3)Gal(b1-4)GlcNAc(b1-6)]Man(a1-6)]Man(b1-4)GlcNAc(b1-4)GlcNAc
Summary of the method: as §1

[17] = target: Neu5Ac(a2-3)Gal(b1-4)GlcNAc(b1-2)[Neu5Ac(a2-3)Gal(b1-4)GlcNAc(b1-4)]Man(a1-3)[GlcNAc(b1-4)][Neu5Ac(a2-3)Gal(b1-4)GlcNAc(b1-4)Man(a1-6)]Man(b1-4)GlcNAc(b1-4)GlcNAc
Summary of the method: as §1

[18] = target: Neu5Ac(a2-3)Gal(b1-4)GlcNAc(b1-2)[Neu5Ac(a2-3)Gal(b1-4)GlcNAc(b1-6)]Man(a1-6)[Neu5Ac(a2-3)Gal(b1-4)GlcNAc(b1-2)Man(a1-3)][GlcNAc(b1-4)]Man(b1-4)GlcNAc(b1-4)GlcNAc
Summary of the method: as §1

[19] = target: Neu5Ac(a2-3)Gal(b1-4)GlcNAc(b1-3)Gal
Summary of the method: as §1

[20] = target: Neu5Ac(a2-3)Gal(b1-4)GlcNAc(b1-3)Gal(b1-3)GlcNAc
Summary of the method: as §1

[21] = target: Neu5Ac(a2-3)Gal(b1-4)GlcNAc(b1-3)Gal(b1-4)GlcNAc
Summary of the method: as §1

[22] = target: Neu5Ac(a2-3)Gal(b1-4)GlcNAc(b1-3)Gal(b1-4)GlcNAc(b1-2)Man(a1-3)[Neu5Ac(a2-3)Gal(b1-4)GlcNAc(b1-3)Gal(b1-4)GlcNAc(b1-2)Man(a1-6)]Man(b1-4)GlcNAc(b1-4)GlcNAc
Summary of the method: as §1

[23] = target: Neu5Ac(a2-3)Gal(b1-4)GlcNAc(b1-3)Gal(b1-4)GlcNAc(b1-3)Gal(b1-4)GlcNAc
Summary of the method: as §1

[24] = target: Neu5Ac(a2-3)Gal(b1-4)GlcNAc(b1-3)Gal(b1-4)GlcNAc(b1-3)Gal(b1-4)GlcNAc(b1-2)Man(a1-3)[Neu5Ac(a2-3)Gal(b1-4)GlcNAc(b1-3)Gal(b1-4)GlcNAc(b1-3)Gal(b1-4)GlcNAc(b1-2)Man(a1-6)]GalNAc
Summary of the method: as §1

[25] = target: Neu5Ac(a2-3)Gal(b1-4)GlcNAc(b1-3)Gal(b1-4)GlcNAc(b1-3)GalNAc
Summary of the method: as §1

[26] = target: Neu5Ac(a2-3)Gal(b1-4)GlcNAc(b1-3)Gal(b1-4)GlcNAc(b1-3)[Neu5Ac(a2-3)Gal(b1-4)GlcNAc(b1-3)Gal(b1-4)GlcNAc(b1-6)]GalNAc
Summary of the method: as §1

[27] = target: Neu5Ac(a2-3)Gal(b1-4)GlcNAc(b1-3)Gal(b1-4)GlcNAc(b1-6)[Gal(b1-3)]GalNAc
Summary of the method: as §1

[28] = target: Neu5Ac(a2-3)Gal(b1-4)GlcNAc(b1-3)Gal(b1-4)[Fuc(a1-3)]GlcNAc
Summary of the method: as §1

[29] = target: Neu5Ac(a2-3)Gal(b1-4)GlcNAc(b1-3)GalNAc
Summary of the method: as §1

B1: Epa1-NP-mutant-E227A (Candida glabrata), Q6VBJ0 (protein)
chain: MILNPALFLNKCVCIYTTLILLLLTNGGYATSSNDISLASKDPTTFPLGCSPDITTPKKGLSMELYSYDFRKKGSYPCWDAAYLDPNYPRTGYKSHRLLAKVDGVTGNINFYYHATKGCTPQLGHLPASYNYPKPLTMTNFTMLLYGYFRPKVTGFHTFTISADDLLFVNFGAGNAFDCCRRDSSADHFGNYQAYAIWGSKTAKDELTVHLDAGVYYPIRLFYNNRAYDGALSFTFKTESNENTVSDFSEYFFSLDDTEEGCPGLISYDSSCASVKTSKIIGIDYHTETPNENLVPITKTIYHLGIPCTGTTTTPLCGSGFYDPLANKCVTINTSSTSSVTKTTSHTTSKEVSFHSSISSQKTLIPKSIPSPYGPIKSQSIPTEMETSSEISSSEYAFSDVISTPSHSPYTKKHSSLNSSSYTSTVIHSLTSYSISQGIFSTSLSEQNITSKSSTDKFSTATSMSNNITQSSIIISQFSTNNENYTTTSMHTSSDKISTETLNNSISTTTSILFSNSSTILKNNTTIISSDKDTHYHPVNPTIVCSTNKTEIICASITQPSISNSNNHWSSSVLKFNSTTVRSTLPSSAGSNETSINVPFSSSTESNTSTSSTSTSNSKMVRSTLPSSAGSNETSISVPFSSSTESNTSTSSTSTSNSKMVRSTLPSSAGSNETSINVPFSSSTESNTSTSSTSTSNSKTVRSTPFSSAGIIMTSLSQRNNKSASSYASSNSKCYNTADSCRKVHSTPSYLLTSSYTSEGVDYDCSLVSTKLKINDTNCVNNKHTTKSCLKTSVTTTIPTLEIKTARKSSSNTIGLHSYPTSSPNKSISSAPIIGYISSFKTIKTASPSYQTSDLTTITTITSLNNPGSTAVENTHESNDKSRKTSSNDISSKHSVIKETKDAVESSNKSHQTNTLKCSSIIIASSSHNSYESLGGTTLTLTLSKVYSPQNNDTLPFLEISEVNPSRTVLPESSKMMQYLTSTEERNKTARNTIATNIVSISTFHFEGEGNAIRMGYTQLLLMLIGIIVMNIGT
In the case of B1, the “glycan array binding signal (z-score)” value [1] is reported as -0.135, the “glycan array binding signal (z-score)” value [2] is reported as -0.197 and the “glycan array binding signal (z-score)” value [3] is reported as -0.197. The “glycan array binding signal (z-score)” value [4] was -0.156, the “glycan array binding signal (z-score)” value [5] was -0.177 and the “glycan array binding signal (z-score)” value [6] was -0.2. For the same binder, the “glycan array binding signal (z-score)” value [7] was -0.203, the “glycan array binding signal (z-score)” value [8] was -0.17 and the “glycan array binding signal (z-score)” value [9] was -0.213. For the same binder, the “glycan array binding signal (z-score)” value (Neu5Ac(a2-3)Gal(b1-4)Glc) was -0.202, the “glycan array binding signal (z-score)” value [10] was -0.192 and the “glycan array binding signal (z-score)” value [11] was -0.153. The “glycan array binding signal (z-score)” value [12] was -0.161, the “glycan array binding signal (z-score)” value [13] was -0.217 and the “glycan array binding signal (z-score)” value [14] was -0.187. For the same binder, the “glycan array binding signal (z-score)” value [15] was -0.195, the “glycan array binding signal (z-score)” value [16] was -0.194 and the “glycan array binding signal (z-score)” value [17] was -0.2. For the same binder, the “glycan array binding signal (z-score)” value [18] was -0.171, the “glycan array binding signal (z-score)” value [19] was -0.202 and the “glycan array binding signal (z-score)” value [20] was -0.198. For the same binder, the “glycan array binding signal (z-score)” value [21] was -0.214, the “glycan array binding signal (z-score)” value [22] was -0.188 and the “glycan array binding signal (z-score)” value [23] was -0.202. For the same binder, the “glycan array binding signal (z-score)” value [24] was -0.144, the “glycan array binding signal (z-score)” value [25] was -0.19 and the “glycan array binding signal (z-score)” value [26] was -0.195. The “glycan array binding signal (z-score)” value [27] was 0.341, the “glycan array binding signal (z-score)” value [28] was -0.977 and the “glycan array binding signal (z-score)” value [29] was -0.184.
